Measurements as given in ChEMBL document CHEMBL5606460, “ASAP - DENV-2 NS2B-NS3 protease fluorescence single point” (2024).
Screen size: about 2,000 compounds; about 110 (5.5%) showed an effect of 50% or more. Some of the results follow.

Target: Genome polyprotein (dengue virus type 2) (UniProt P29990)
[1] = Thailand/16681/1984, Concentration 25.0 uM, Number of replicates 1.0

## C[C@H](NC(=O)C1CCN(c2ccc(C=O)cc2)CC1)c1ccc2c(c1)CCCC2
[1]
  inhibition: 4.81%

## COc1ccccc1N1CCN(C(=O)c2ccccc2Cc2cccc3c(CO)cc(C)nc23)CC1
Thailand/16681/1984, Concentration 49.95 uM, Number of replicates 2.0, Standard deviation 1.123252962265532 %
  inhibition: 6%
Thailand/16681/1984, Concentration 99.9 uM, Number of replicates 2.0, Standard deviation 0.9888648698028478 %
  inhibition: 14.1%

## NCc1cccc(NC(=O)C2CCN(C(=O)OCc3ccccc3)CC2)c1
Thailand/16681/1984, Concentration 49.5 uM, Number of replicates 2.0, Standard deviation 1.518934319581567 %
  inhibition: -7.14%
Thailand/16681/1984, Concentration 99.01 uM, Number of replicates 2.0, Standard deviation 1.7880722930545534 %
  inhibition: -7.66%
Thailand/16681/1984, Concentration 198.0 uM, Number of replicates 2.0, Standard deviation 0.44046524984455854 %
  inhibition: -6.74%

## Cc1cnccc1NC(=O)c1ccccc1-n1cccn1
Thailand/16681/1984, Concentration 49.5 uM, Number of replicates 2.0, Standard deviation 2.8850068243548517 %
  inhibition: -2.9%
Thailand/16681/1984, Concentration 99.01 uM, Number of replicates 2.0, Standard deviation 1.9964208553959129 %
  inhibition: -2.29%
Thailand/16681/1984, Concentration 198.0 uM, Number of replicates 2.0, Standard deviation 2.4957676128337067 %
  inhibition: -1.41%

## COc1cc(C(=O)NCc2cccnc2)nc(N2CCNCC2)n1
Thailand/16681/1984, Concentration 49.5 uM, Number of replicates 2.0, Standard deviation 0.35920325992985613 %
  inhibition: -2.77%
Thailand/16681/1984, Concentration 99.01 uM, Number of replicates 2.0, Standard deviation 0.5911788397842407 %
  inhibition: -1.14%
Thailand/16681/1984, Concentration 198.0 uM, Number of replicates 2.0, Standard deviation 2.03373169021497 %
  inhibition: 0.395%

## CC(C)Nc1nc2ccc(C(=O)Nc3cnn(C)c3)cc2[nH]1
Thailand/16681/1984, Concentration 49.5 uM, Number of replicates 2.0, Standard deviation 2.031825556844216 %
  inhibition: -4.41%
Thailand/16681/1984, Concentration 99.01 uM, Number of replicates 2.0, Standard deviation 2.329776970420584 %
  inhibition: -3.9%
Thailand/16681/1984, Concentration 198.0 uM, Number of replicates 2.0, Standard deviation 2.6735671278500064 %
  inhibition: -0.813%

## CNC(=O)c1cc(Cl)ccc1NS(=O)(=O)Cc1cc(C)no1
Thailand/16681/1984, Concentration 49.5 uM, Number of replicates 2.0, Standard deviation 3.304459257112122 %
  inhibition: -9.4%

## Nc1ccc(-c2ccc3c(c2)OB(O)CC3)cn1
Thailand/16681/1984, Concentration 49.5 uM, Number of replicates 2.0, Standard deviation 0.9472183886774751 %
  inhibition: 2.94%
Thailand/16681/1984, Concentration 99.01 uM, Number of replicates 2.0, Standard deviation 0.32641149450183415 %
  inhibition: 6.03%
Thailand/16681/1984, Concentration 198.0 uM, Number of replicates 2.0, Standard deviation 0.22333379003571086 %
  inhibition: 8.96%

## Cc1nc(CNC(=O)c2[nH]c([C@H]3CCCNC3)nc2C)c[nH]1
Thailand/16681/1984, Concentration 49.5 uM, Number of replicates 2.0, Standard deviation 1.3308066666541125 %
  inhibition: -0.795%
Thailand/16681/1984, Concentration 99.01 uM, Number of replicates 2.0, Standard deviation 0.19197328416791432 %
  inhibition: 0.241%
Thailand/16681/1984, Concentration 198.0 uM, Number of replicates 2.0, Standard deviation 0.41151993225218636 %
  inhibition: 1.17%

## Cc1cc(CO)c2cccc(NC(=O)CNC3CC3)c2n1
Thailand/16681/1984, Concentration 49.95 uM, Number of replicates 2.0, Standard deviation 1.6119901778213759 %
  inhibition: 15.9%
Thailand/16681/1984, Concentration 99.9 uM, Number of replicates 2.0, Standard deviation 1.4451149573517064 %
  inhibition: 30.7%

## Cc1cc(CO)c2cccc(NC(=O)[C@H]3CCNC3)c2n1
Thailand/16681/1984, Concentration 49.95 uM, Number of replicates 2.0, Standard deviation 1.8979597481282788 %
  inhibition: -0.539%
Thailand/16681/1984, Concentration 99.9 uM, Number of replicates 2.0, Standard deviation 1.976292784952565 %
  inhibition: 2.99%

## CC(C)Oc1cc(COc2cccnc2F)nc(N2CCNCC2)n1
Thailand/16681/1984, Concentration 49.5 uM, Number of replicates 2.0, Standard deviation 3.358190925579508 %
  inhibition: -4.73%
Thailand/16681/1984, Concentration 99.01 uM, Number of replicates 2.0, Standard deviation 3.5388488398618163 %
  inhibition: -4.38%
Thailand/16681/1984, Concentration 198.0 uM, Number of replicates 2.0, Standard deviation 3.6589908549859094 %
  inhibition: -2.78%

## O=C(c1c[nH]c2ccccc12)N1CCC(c2c[nH]c3cccnc23)CC1
Thailand/16681/1984, Concentration 49.5 uM, Number of replicates 2.0, Standard deviation 2.729734715573928 %
  inhibition: -3.41%
Thailand/16681/1984, Concentration 99.01 uM, Number of replicates 2.0, Standard deviation 2.915126500660707 %
  inhibition: -2.5%
Thailand/16681/1984, Concentration 198.0 uM, Number of replicates 2.0, Standard deviation 2.8556732921408456 %
  inhibition: 0.248%

## Cc1cc(CO)c2cccc(Cc3cccc(C(=O)NCC4CCOCC4)c3)c2n1
Thailand/16681/1984, Concentration 49.95 uM, Number of replicates 2.0, Standard deviation 2.974500515252217 %
  inhibition: -4.55%
Thailand/16681/1984, Concentration 99.9 uM, Number of replicates 2.0, Standard deviation 0.6848752879745666 %
  inhibition: -1.14%

## CN(Cc1ccccc1NC(=O)C1CCN(c2ccc(C=O)cc2)CC1)C1CCCCC1
[1]
  inhibition: 13.6%

## COc1cc(Cc2ccc(S(=O)(=O)NCCO)cc2)nc(N2CCNCC2)n1
Thailand/16681/1984, Concentration 49.5 uM, Number of replicates 2.0, Standard deviation 0.08182962367044716 %
  inhibition: -2.78%
Thailand/16681/1984, Concentration 99.01 uM, Number of replicates 2.0, Standard deviation 0.3472509194543487 %
  inhibition: -2.12%
Thailand/16681/1984, Concentration 198.0 uM, Number of replicates 2.0, Standard deviation 1.2127555040010847 %
  inhibition: -2.14%

## NCc1cccc(NC(=O)[C@@H](Cc2cccc(O)c2)NC(=O)OCc2ccccc2)c1
Thailand/16681/1984, Concentration 49.5 uM, Number of replicates 2.0, Standard deviation 2.8573642237031027 %
  inhibition: -3.63%
Thailand/16681/1984, Concentration 99.01 uM, Number of replicates 2.0, Standard deviation 1.9175045904819328 %
  inhibition: -3.65%
Thailand/16681/1984, Concentration 198.0 uM, Number of replicates 2.0, Standard deviation 1.9524208099559948 %
  inhibition: -2.84%

## O=Cc1ccc(N2CCC(C(=O)NCc3ccc(OC(F)(F)F)cc3)CC2)cc1
[1]
  inhibition: 10.7%

## Cc1cc(CO)c2cccc(Cc3ccccc3C(=O)N3CCC(CN)CC3)c2n1
Thailand/16681/1984, Concentration 49.95 uM, Number of replicates 2.0, Standard deviation 7.669453256982897 %
  inhibition: 67%
Thailand/16681/1984, Concentration 99.9 uM, Number of replicates 2.0, Standard deviation 4.997502207892192 %
  inhibition: 86.3%

## O=C(Nc1nc2ccccc2[nH]1)[C@@]1(c2ccc(F)cc2)CCCNC1
Thailand/16681/1984, Concentration 49.5 uM, Number of replicates 2.0, Standard deviation 0.9171252879352392 %
  inhibition: 0.644%
Thailand/16681/1984, Concentration 99.01 uM, Number of replicates 2.0, Standard deviation 1.169983954901562 %
  inhibition: 1.06%
Thailand/16681/1984, Concentration 198.0 uM, Number of replicates 2.0, Standard deviation 0.7736108835077664 %
  inhibition: 2.49%

## CC(C)(CO)NC(=O)c1cc(Cl)cc(NC(=O)c2c[nH]c(=O)o2)c1
Thailand/16681/1984, Concentration 49.5 uM, Number of replicates 2.0, Standard deviation 0.8910462701673381 %
  inhibition: -0.805%
Thailand/16681/1984, Concentration 99.01 uM, Number of replicates 2.0, Standard deviation 0.1489851898290989 %
  inhibition: 1.01%
Thailand/16681/1984, Concentration 198.0 uM, Number of replicates 2.0, Standard deviation 0.6795059902085213 %
  inhibition: 4.89%

## CCCc1nn(C)c(C(N)=O)c1Nc1cccc2c(CO)cc(C)nc12
Thailand/16681/1984, Concentration 49.95 uM, Number of replicates 2.0, Standard deviation 0.3385554582582744 %
  inhibition: -0.283%
Thailand/16681/1984, Concentration 99.9 uM, Number of replicates 2.0, Standard deviation 0.771265242800741 %
  inhibition: 3.07%

## CNC(=O)[C@H]1CCN(S(=O)(=O)c2ccc(Oc3ccccc3Cl)cc2)C1
Thailand/16681/1984, Concentration 49.5 uM, Number of replicates 2.0, Standard deviation 0.2326651022960228 %
  inhibition: -2.7%
Thailand/16681/1984, Concentration 99.01 uM, Number of replicates 2.0, Standard deviation 1.0727392899756494 %
  inhibition: -1.81%
Thailand/16681/1984, Concentration 198.0 uM, Number of replicates 2.0, Standard deviation 0.8124211767562954 %
  inhibition: 0.204%

## Cc1nc([C@H]2CCCNC2)[nH]c1C(=O)N1CCN([C@H](C)C(=O)NC2CCCC2)CC1
Thailand/16681/1984, Concentration 49.5 uM, Number of replicates 2.0, Standard deviation 0.15595109451043393 %
  inhibition: -3.77%
Thailand/16681/1984, Concentration 99.01 uM, Number of replicates 2.0, Standard deviation 0.465726384968048 %
  inhibition: -3.64%
Thailand/16681/1984, Concentration 198.0 uM, Number of replicates 2.0, Standard deviation 0.9729217285355408 %
  inhibition: -3.32%

## O=Cc1ccc(N2CCC(C(=O)N3CCC(C(=O)NCCO)CC3)CC2)cc1
[1]
  inhibition: 12.8%

## CC(=O)Nc1cccc(CNC(=O)C2CCN(c3ccc(C=O)cc3)CC2)c1
[1]
  inhibition: 15.8%
